Consider four compounds from patent US20260242371A1, “LIPID PRODRUGS OF BROM[…] USES THEREOF” (priority 2023, published 2026).

SMILES strings stand for the structures.

The data set in a line: In vitro release of 2-bromo-LSD from lipid prodrugs in human plasma supplemented with lipoprotein lipase. The settings on record: 40 μM prodrug, human plasma with LPL, 0-180 minutes, 37° C.
On to `CCCCCCCC/C=C\CCCCCCCC(=O)OCC(COC(=O)CCCCCCC/C=C\CCCCCCCC)OC(=O)CC(C)CCCCCCC(C)CC(=O)n1c(Br)c2c3c(cccc31)C1=C[C@@H](C(=O)N(CC)CC)CN(C)[C@@H]1C2` (stereo partly shown) [Compound I-3, 2BL-C12b′bMe-2-TG-oleate], for which the “% 2-Br-LSD present at end of experiment” value was “++ (++ representing a percentage release of 2-bromo-LSD between 5-25%)”.
In the case of `CCCCCCCC(=O)OCC(COC(=O)CCCCCCC)OC(=O)CC(C)(C)CC(=O)OCn1c(Br)c2c3c(cccc31)C1=C[C@@H](C(=O)N(CC)CC)CN(C)[C@@H]1C2` [Compound I-28, 2BL-ASI-C5bbGMe-2-TG-octanoate] it was “++ (++ representing a percentage release of 2-bromo-LSD between 5-25%)”; in that of `CCCCCCCC/C=C\CCCCCCCC(=O)OCC(COC(=O)CCCCCCC/C=C\CCCCCCCC)OC(=O)CC(C)CCCCCCCCC(=O)OCn1c(Br)c2c3c(cccc31)C1=C[C@@H](C(=O)N(CC)CC)CN(C)[C@@H]1C2` (stereo partly shown) [Compound I-6, 2BL-ASI-C12bMe-2-TG-oleate], “++ (++ representing a percentage release of 2-bromo-LSD between 5-25%)”; in that of `CCCCCCCC/C=C\CCCCCCCC(=O)OCC(COC(=O)CCCCCCC/C=C\CCCCCCCC)OC(=O)CC(C)CCCCC(=O)OCn1c(Br)c2c3c(cccc31)C1=C[C@@H](C(=O)N(CC)CC)CN(C)[C@@H]1C2` (stereo partly shown) [Compound I-5, 2BL-ASI-C8bMe-2-TG-oleate], “++ (++ representing a percentage release of 2-bromo-LSD between 5-25%)”.
